Data published in article PMC11876325.
Results are given in words; binding and its absence hold for the method and conditions named. Some entries that bind do so weakly or less than the wild type.

The chains behind the UniProt entries cited, without tags or fusion partners.
UniProt P25454: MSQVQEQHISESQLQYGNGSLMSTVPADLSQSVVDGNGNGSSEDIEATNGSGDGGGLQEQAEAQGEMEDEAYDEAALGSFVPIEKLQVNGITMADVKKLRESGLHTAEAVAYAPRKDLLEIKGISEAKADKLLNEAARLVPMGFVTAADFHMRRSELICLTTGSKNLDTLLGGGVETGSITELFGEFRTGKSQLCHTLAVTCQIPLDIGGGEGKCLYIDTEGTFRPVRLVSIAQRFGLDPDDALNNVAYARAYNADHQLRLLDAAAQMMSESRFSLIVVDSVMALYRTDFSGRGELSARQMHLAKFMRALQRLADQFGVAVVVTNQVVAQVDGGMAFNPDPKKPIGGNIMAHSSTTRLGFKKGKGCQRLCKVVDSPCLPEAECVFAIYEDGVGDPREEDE

T1: Psy3 (pGBD Psy3) (S. cerevisiae) (UniProt Q12318)
T1 sequence: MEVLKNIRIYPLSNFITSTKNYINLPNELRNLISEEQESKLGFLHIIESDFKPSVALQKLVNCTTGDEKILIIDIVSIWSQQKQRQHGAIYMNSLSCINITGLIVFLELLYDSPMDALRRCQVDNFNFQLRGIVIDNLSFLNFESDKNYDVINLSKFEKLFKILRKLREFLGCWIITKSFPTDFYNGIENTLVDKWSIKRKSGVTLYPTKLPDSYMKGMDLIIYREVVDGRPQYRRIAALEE

T2: Rad55 (pGBD Rad55) (S. cerevisiae) (UniProt P38953)
T2 sequence: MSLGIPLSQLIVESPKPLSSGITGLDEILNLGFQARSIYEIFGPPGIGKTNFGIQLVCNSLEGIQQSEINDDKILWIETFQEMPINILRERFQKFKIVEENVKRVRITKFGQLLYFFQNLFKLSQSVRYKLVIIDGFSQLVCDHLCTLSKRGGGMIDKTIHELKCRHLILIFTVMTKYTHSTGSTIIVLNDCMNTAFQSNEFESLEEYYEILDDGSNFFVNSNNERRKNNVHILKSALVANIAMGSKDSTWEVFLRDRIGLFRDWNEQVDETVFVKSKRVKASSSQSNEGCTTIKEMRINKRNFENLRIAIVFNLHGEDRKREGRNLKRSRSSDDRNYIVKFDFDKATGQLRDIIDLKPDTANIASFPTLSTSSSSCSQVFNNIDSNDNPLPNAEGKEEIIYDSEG

T3: Rad57 (pGBD Rad57) (S. cerevisiae) (UniProt P25301)
T3 sequence: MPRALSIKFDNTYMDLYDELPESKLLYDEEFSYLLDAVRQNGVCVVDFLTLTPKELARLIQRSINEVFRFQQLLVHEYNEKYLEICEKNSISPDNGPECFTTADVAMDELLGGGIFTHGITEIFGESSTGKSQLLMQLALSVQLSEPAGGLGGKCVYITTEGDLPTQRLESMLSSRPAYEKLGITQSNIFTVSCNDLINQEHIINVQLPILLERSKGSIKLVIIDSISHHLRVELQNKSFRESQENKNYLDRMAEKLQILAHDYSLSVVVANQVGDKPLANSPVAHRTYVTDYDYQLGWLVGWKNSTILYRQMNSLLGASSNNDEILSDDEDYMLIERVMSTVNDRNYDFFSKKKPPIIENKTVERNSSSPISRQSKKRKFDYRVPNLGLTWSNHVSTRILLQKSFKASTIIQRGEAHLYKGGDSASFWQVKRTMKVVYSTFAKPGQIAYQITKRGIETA

T4: Mcm10 (pGBD Mcm10) (S. cerevisiae) (UniProt P32354)
T4 sequence: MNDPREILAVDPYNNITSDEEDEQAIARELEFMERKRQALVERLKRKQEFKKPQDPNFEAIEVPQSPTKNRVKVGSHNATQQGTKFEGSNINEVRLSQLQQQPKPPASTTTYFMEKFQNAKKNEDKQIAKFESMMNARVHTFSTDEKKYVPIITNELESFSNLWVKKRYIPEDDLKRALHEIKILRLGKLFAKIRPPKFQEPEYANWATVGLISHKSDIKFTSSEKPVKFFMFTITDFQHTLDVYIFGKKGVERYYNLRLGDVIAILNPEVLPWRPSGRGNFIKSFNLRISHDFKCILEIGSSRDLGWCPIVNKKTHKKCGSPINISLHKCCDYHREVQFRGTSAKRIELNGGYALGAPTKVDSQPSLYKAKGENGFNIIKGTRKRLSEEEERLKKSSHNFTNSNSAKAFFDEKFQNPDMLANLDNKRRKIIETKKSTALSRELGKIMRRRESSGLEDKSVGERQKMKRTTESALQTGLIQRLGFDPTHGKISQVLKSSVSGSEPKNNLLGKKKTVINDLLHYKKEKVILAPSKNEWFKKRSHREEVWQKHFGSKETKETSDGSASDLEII


Assays:
Experiment in all cases: two-hybrid; GAL4 DNA-binding domain (pGBD) and GAL4 activation domain (pGAD) fusions co-transformed into PJ69-4α (also its rad51∆, rad55∆, csm2∆, shu1∆ and shu2∆ derivatives); growth on SC-L-W-H, 2-3 days, 30 °C
[1] = biological target: T1, Psy3 (pGBD Psy3) (S. cerevisiae)
[2] = biological target: Rad51 (two-hybrid fusion) (S. cerevisiae) (UniProt P25454)
[3] = biological target: T2, Rad55 (pGBD Rad55) (S. cerevisiae)
[4] = biological target: T3, Rad57 (pGBD Rad57) (S. cerevisiae)
[5] = biological target: T4, Mcm10 (pGBD Mcm10) (S. cerevisiae)

Row | Binder | binding [1] | binding [2] | binding [3] | binding [4] | binding [5]
1 | Mcm7 (pGAD Mcm7) (protein, UniProt P38132 1-845) MSAALPSIQLPVDYNNLFNEITDFLVTFKQDTLSSDATRNENEDENLDAENIEQHLLEKGPKYMAMLQKVANRELNSVIIDLDDILQYQNEKFLQGTQADDLVSAIQQNANHFTELFCRAIDNNMPLPTKEIDYKDDVLDVILNQRRLRNERMLSDRTNEIRSENLMDTTMDPPSSMNDALREVVEDETELFPPNLTRRYFLYFKPLSQNCARRYRKKAISSKPLSVRQIKGDFLGQLITVRGIITRVSDVKPAVEVIAYTCDQCGYEVFQEVNSRTFTPLSECTSEECSQNQTKGQLFMSTRASKFSAFQECKIQELSQQVPVGHIPRSLNIHVNGTLVRSLSPGDIVDVTGIFLPAPYTGFKALKAGLLTETYLEAQFVRQHKKKFASFSLTSDVEERVMELITSGDVYNRLAKSIAPEIYGNLDVKKALLLLLVGGVDKRVGDGMKIRGDINVCLMGDPGVAKSQLLKAICKISPRGVYTTGKGSSGVGLTAAVMKDPVTDEMILEGGALVLADNGICCIDEFDKMDESDRTAIHEVMEQQTISISKAGINTTLNARTSILAAANPLYGRYNPRLSPLDNINLPAALLSRFDILFLMLDIPSRDDDEKLAEHVTYVHMHNKQPDLDFTPVEPSKMREYIAYAKTKRPVMSEAVNDYVVQAYIRLRQDSKREMDSKFSFGQATPRTLLGIIRLSQALAKLRLADMVDIDDVEEALRLVRVSKESLYQETNKSKEDESPTTKIFTIIKKMLQETGKNTLSYENIVKTVRLRGFTMLQLSNCIQEYSYLNVWHLINEGNTLKFVDDGTMDTDQEDSLVSTPKLAPQTTASANVSAQDSDIDLQDA | binds | no binding | no binding | no binding | 
2 | Psy3 (pGAD Psy3) (protein, UniProt Q12318 1-242) MEVLKNIRIYPLSNFITSTKNYINLPNELRNLISEEQESKLGFLHIIESDFKPSVALQKLVNCTTGDEKILIIDIVSIWSQQKQRQHGAIYMNSLSCINITGLIVFLELLYDSPMDALRRCQVDNFNFQLRGIVIDNLSFLNFESDKNYDVINLSKFEKLFKILRKLREFLGCWIITKSFPTDFYNGIENTLVDKWSIKRKSGVTLYPTKLPDSYMKGMDLIIYREVVDGRPQYRRIAALEE |  |  |  |  | no binding
3 | Shu2 (pGAD Shu2) (protein, UniProt P38957 1-223) MSKDVIEYSKLFAKLVNTNDDTKLDDTIASFLYYMFPRELFIRAISLLESSDMFIYILDRVHNKEGNEHTSLIDVLVDEFYKGSSNSLLEYRLIVKDTNDGAPPILVDIAHWFCSCEEFCKYFHEALEKTDEKEELHDVLINEVDDHLQFSDDRFAQLDPHSLSKQWYFKFDKVCCSHLLAFSILLRSSINVLKFFTVNSNKVFVIAIDNIDEWLNLHINIVE |  |  |  |  | no binding
